Measurements published in PubChem BioAssay AID493208 (National Center for Advancing Translational Sciences (NCATS), 2011).
The campaign covered roughly 44,000 compounds. About 340 (0.77%) were called active. Roughly 5% stayed inconclusive and do not appear here. Calls follow the shape of the dose curve; as a rule, active = well fitted inhibition curve with a large enough effect; inconclusive = small, poorly fitted or top-dose-only effect; inactive = flat fitted curve, though single readings scatter. The list shows a part of the results.

experiment: Acumen qHTS Assay for Inhibitors of the mTORC1 Signaling Pathway in MEF (Tsc2-/-, p53-/-) Cells: Sytravon; conditions: phospho-rpS6 immunofluorescence/PI, 24 h; series mostly up to 38.3 µM; activity change, negative = inhibition: at the top concentration;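 also: plate controls were DMSO for no effect and rapamycin for full effect; nearly all actives have a fitted effect of over 50% in size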
How it was run: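 Tsc2-/-, p53-/- mouse embryonic fibroblasts (empty-vector line) exposed to compound 24 hrs at 37 C, fixed, immunostained for phospho-rpS6 and counterstained with propidium iodide. Acumen laser scanning gives % positive cells from Alexa 488/PI ratio, thresholded using 7.5 nM rapamycin; PI count gives viability.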

Activity change, negative = inhibition, inactive:
COc1ccc(CNC(=O)Cn2nc3c(cc2=O)CCCC3)cc1 -1.24%
Cc1cccc(N2C(=O)N(Cc3cc(=O)n4ccccc4n3)c3ccccc3S2(=O)=O)c1 -4.85%
COc1ccc(C(=O)N2CCN(c3nc4c(C)c(Cl)ccc4s3)CC2)c(OC)c1 3%
CCOc1ccc(NC(=O)CN(C)S(=O)(=O)c2ccc3[nH]c4c(c3c2)CCCC4)cc1 -0.312%
Cc1cc(-c2ccc(S(=O)(=O)Nc3cccc(Cl)c3C)cc2)on1 -11.5%
Cc1ccc(Cl)cc1N1CCN(C(=O)C2CCCN(Cc3nc(-c4cccc(Cl)c4)oc3C)C2)CC1 (stereo unspecified) -17.9%
CCCCNc1nc2c(c(=O)n(Cc3ccccc3)c(=O)n2C)n1C -10.1%
COc1ccc(N(C)C(=O)c2cc3c(s2)-c2ccccc2OC3)cc1 -5.65%
Cc1cc(C(=O)Nc2cccc(C)c2C)c2c(C)nn(-c3cccc(F)c3)c2n1 -2.62%
COc1cc(OC)c(OC)cc1/C=C/c1nc2ccccc2c(=O)n1-c1ccc(Br)c(C)c1 7.62%
O=C(c1ccc(Cl)cc1)c1cn(Cc2ccccc2)c2cc3c(cc2c1=O)OCCO3 2.21%
Cc1ccc(NC(=O)Cn2c(=O)ccc3cc(S(=O)(=O)N4CCCC4)ccc32)cc1N(C)C -18.8%
O=C(NCc1ccc(Cl)cc1)c1ccc2c(c1)N(Cc1ccccc1F)C(=O)c1ccccc1S2=O (stereo unspecified) -13.1%
CCc1ccc(CNC(=O)c2ccc(CS(=O)(=O)Cc3cccc(C)c3)o2)cc1 11.7%
CC(=O)Nc1ccc(S(=O)(=O)N(Cc2ccccc2)Cc2ccccc2)cc1 0.603%
CCOc1ccccc1-c1nc(C(N)=O)c2c(n1)n(-c1ccc3c(c1)OCO3)c(=O)n2C 6.47%
CCn1c(=O)cc(SCC(=O)NCc2ccc(C)cc2)c2ccccc21 -3.56%
C=Cc1ccc(Cn2c(=O)n(CC3CCC(C(=O)NC(C)C)CC3)c(=O)c3sccc32)cc1 (stereo unspecified) 0.918%
O=C(NCc1ccco1)c1ccc2c(c1)N(Cc1ccccc1F)C(=O)c1ccccc1S2(=O)=O -4.11%
CCCCNC(=O)c1ccc2c(c1)NC(=O)C(CS(=O)(=O)Cc1ccc(F)cc1Cl)N2 (stereo unspecified) -10.7%
COc1cccc(NC(=O)CCN2CCN(CCO)CC2)c1 10%
COc1cccc(-c2ccc3c(N)c(C(=O)Nc4ccccc4C)sc3n2)c1 0.441%
CC(C)CCNC(=O)c1ccc2c(c1)nc1n2CCCCC1 0%
CCCC(=O)Nc1ccc2nc(SCc3ccc(C)cc3)sc2c1 -14.5%
COCCNc1ccc(-c2nc(-c3ccccn3)no2)cc1[N+](=O)[O-] 2.04%
Nc1ccc2oc(Cc3ccc(Cl)cc3)nc2c1 -1.85%
COc1ccc(C)cc1NC(=O)Cc1c(C(=O)O)c(C)cn1C -1.69%
CC(=O)c1cccc(NC(=O)CSc2nc3c(=O)n(C)c(=O)n(C)c3n2C)c1 0.327%
CC(C)CCn1c(=O)c2sccc2n2c(CCCC(=O)NC(C)c3ccccc3)nnc12 (stereo unspecified) -0.899%
Cc1cccc(OCC(=O)Nc2ccccc2C(=O)OCc2cc(=O)n3nc(C4CC4)sc3n2)c1 0%
Cc1cccc(N2CCN(c3nc4ccccc4c4nc(-c5cccnc5)nn34)CC2)c1C -4.17%
Cc1ccc(CCNC(=O)c2cc3c(=O)n(C)c4ccccc4c3n2C)cc1 8.4%
Cc1ccc2cc3cc(C(=O)N(C)c4ccccc4C)oc3nc2c1 -9.34%
CCc1cccc(N2C(=O)N(Cc3c(F)cccc3Cl)c3ccccc3S2(=O)=O)c1 1.47%
CCn1cc(C(=O)Nc2ccc(C(C)C)cc2)c2cc(OC)c(OC)cc2c1=O 0.131%
CCc1cnc2c(c1SCCC(C)C)c(=O)n(C)c(=O)n2C 0.327%
CCOC(=O)c1ccc(NC(=O)c2c(NCc3cc(OC)ccc3OC)sc3c2CCC3)cc1 -6%
Cc1cccc(C)c1NC(=O)CN1C(=O)c2ccccc2Sc2ncccc21 8.11%
COC(=O)c1cc2sc(C)cc2n1CC(=O)Nc1ccc(C)cc1Cl -7.67%
CC(=O)c1cc(-c2ccccc2)n(CC(=O)NCc2ccccc2C)c1C -1.99%
CC(C)OCCCNC(=O)c1nn(C)c2c1CSc1ccccc1-2 -17.8%
CCCOC(=O)c1ccc(Nc2c(C(=O)OCC)cnc3c(C)cc(Cl)cc23)cc1 1.32%
COc1ccc(-c2noc(CSc3nnc(-c4ccccc4)n3C)n2)cc1 -12.8%
Cc1oc2c(cc(NS(=O)(=O)c3ccc(F)cc3)c3ccccc32)c1C(=O)OCc1ccccc1 0.16%
COc1ccc(C)cc1NC(=O)CN1CCN(S(=O)(=O)c2ccc(Br)cc2)CC1 2.92%
COc1ccc(NC(=O)C2CCC(CNS(=O)(=O)c3cccs3)CC2)cc1OC (stereo unspecified) -2%
Clc1ccccc1-c1nnc(-c2ccccc2CNc2ccccc2)o1 -10%
COc1ccccc1CNC(=O)c1cc2ccc3ccc(C)[nH]c3c2n1 0%
Cc1ccccc1CSCCNC(=O)CN(c1ccccc1)S(=O)(=O)N(C)C -2.92%
CCN1CCc2c(sc(-n3cccc3)c2C(C)NC(=O)Nc2ccccc2C)C1 (stereo unspecified) 1.84%
Cc1cccc(CC(=O)Nc2cccc(-c3nc4cccnc4s3)c2)c1 -6.87%
CCn1nnc2cc(C(=O)Nc3cccc(C)c3C)ccc21 -12.1%
Cc1ccc(C)c(N2CCN(S(=O)(=O)c3csc(C(N)=O)c3)CC2)c1 -10.9%
Cc1cccc(Oc2ccc(NC(=O)CCC(=O)OCC(=O)c3ccc(Br)cc3)cc2)c1C -8.75%
Cc1ccc(C)c(CSc2cn(CCNC(=O)c3ccccc3F)c3ccccc23)c1 7.41%
COc1cccc(C(C(=O)NCc2ccccc2)N(C(=O)Cn2nnc3ccccc32)c2cccc(C(C)=O)c2)c1 (stereo unspecified) -4.08%
COc1ccc(Cc2c(C)nn(-c3nc(C)c(C(=O)Nc4ccc(C)cc4C)s3)c2C)cc1 0.545%
COc1cc(C2c3c(-c4ccccc4O)n[nH]c3C(=O)N2CCO)ccc1OCC(C)C (stereo unspecified) -20.1%
COc1ccc(NC(=O)c2oc3ccc(S(=O)(=O)N4CCC5(CC4)OCCO5)cc3c2C)cc1Cl 4.58%
CCCCc1ccc(NC(=O)CSc2nnc3[nH]c(=O)cc(C)n23)cc1 2.07%
CCCN1CCN(CCCNC(=O)c2ccc(CS(=O)c3ccc(OC)cc3)o2)CC1 (stereo unspecified) 4.31%
CCN(CC)CCNC(=O)c1cc2c(=O)oc3ccc(C)cc3c2s1 -18.7%
Cc1ccc(NC(=O)Cn2nnc3sc4c(c3c2=O)CCCC4)c(C)c1 2.83%
O=C(/C=C/c1ccc(Cl)cc1)Nc1nc(-c2cccs2)ns1 0.479%
Cc1cc(C)c(Cn2c3ccccc3c3cnn(CC(=O)NCC(C)c4ccccc4)c(=O)c32)c(C)c1 (stereo unspecified) 1.4%
CCn1cc(C(=O)NCc2ccc(F)cc2)c(=O)c2cc(S(=O)(=O)N(C)C)ccc21 1.05%
COc1cc(OC)c(NC(=O)CCNS(=O)(=O)c2ccc3c(c2)oc(=O)n3C)cc1Cl -6.02%
Cc1ccc(CNC(=O)CSC2=Nc3ccccc3C3=NC(C)C(=O)N23)cc1 (stereo unspecified) 1.87%
Cc1ccc2occ(CC(=O)N3CCN(c4cccc(Cl)c4)CC3)c2c1 -2.7%
CCCN1CCN(CCCNC(=O)Cn2c(-c3cccs3)cc3cc(Cl)ccc32)CC1 -0.299%
Cc1cc(Cl)ccc1NC(=O)c1cc2ccccn2n1 7.61%
CCOC(=O)c1ccccc1NC(=O)c1nn(C)c2c1COc1ccccc1-2 -17.5%
CC(=O)Nc1cccc(NC(=O)C(=O)NCCc2csc3nc(-c4ccccc4F)nn23)c1 0.85%
COc1ccccc1N1CCN(S(=O)(=O)c2ccc(-c3cnc(C4CC4)o3)cc2)CC1 0%
CC(C)CCNC(=O)c1cn(C)c2ccc(S(=O)(=O)N3CCOCC3)cc2c1=O -0.19%
Cc1ccc(OCc2nnc(-c3ccccc3)o2)cc1 -20.6%
COc1cc2c(cc1OC)C(COc1ccccc1OC)N(C(=O)c1ccccc1OC)CC2 (stereo unspecified) 1.77%
CCc1cccc(NC(=O)CCS(=O)(=O)c2cc3c4c(c2)CCN4C(=O)CC3)c1 1.65%
Cc1c(Cl)cccc1-n1nc(C)c2c(C)cc(=O)n(CC(=O)NCc3ccccc3)c21 0.393%
Cc1cccc(C(=O)Nc2cccc(OCc3cc(=O)n4ccccc4n3)c2)c1 9.47%
COc1cc2c(=O)c(S(=O)(=O)c3ccccc3)cn(CC(=O)Nc3ccccc3C)c2cc1OC 5.31%
Cc1cc(C)c(NC(=O)Cn2c(=O)n(Cc3ccccc3)c(=O)c3c(C)c(C(=O)N(C)C)sc32)c(C)c1 -1.89%
CCC1CCCCN1Cc1cn2c(-c3ccc(Br)cc3)nnc2s1 (stereo unspecified) -6.32%
CCS(=O)(=O)N1CCc2cc(C(=O)Nc3ccc(OC)cc3OC)ccc21 1.81%
CC(=O)c1cccc(NC(=O)c2nc(-c3ccccc3)n(-c3cccc(C)c3)n2)c1 0.887%
CCOc1ccccc1NC(=O)CN1CCN(S(=O)(=O)c2ccc(Br)cc2)CC1 6.8%
CCC(C)NC(=O)CSc1nc2cc3c(cc2c(=O)n1CCCCCC(=O)NCc1ccc(OC)cc1)OCO3 (stereo unspecified) -9.29%
COc1c(Cl)cc(Cl)cc1CNCCSc1nnnn1C 3.7%
O=C(Nc1nc2n(n1)C(c1ccc(F)cc1)C=C(c1ccccc1)N2)c1cccc([N+](=O)[O-])c1 (stereo unspecified) 3.84%
Cc1ccc(Nc2sc(C(=O)c3ccccc3)c(N)c2S(=O)(=O)c2ccccc2)c(C)c1 1.39%
COc1ccccc1N1CCN(C(=O)Cn2c(=O)n3nc(-c4cccc(C)c4)nc3c3ccccc32)CC1 3.64%
COc1ccc(CCNC(=O)c2c(C)nn(-c3ccc(F)cc3)c2-n2cccc2)c(OC)c1OC -12.3%
CCCSc1ncc(Cl)c(C(=O)Nc2c(C(=O)c3ccc(F)cc3)oc3ccccc23)n1 -9.18%
COc1ccc(-n2ncc(C(=O)Nc3ccc4c(c3)OCCO4)c2C2CCN(C(=O)OC(C)(C)C)CC2)cc1 -7.43%
CCOc1ccc(CNC(=O)C2CCCN(S(=O)(=O)N(CC)c3ccc(OCC)cc3)C2)cc1 (stereo unspecified) -12.5%
CCN(C(=O)Cn1nc(Cc2ccncc2)c2ccccc2c1=O)c1cccc(C(F)(F)F)c1 -7.14%
